Measured values reported in PubChem BioAssay AID1458 (National Center for Advancing Translational Sciences (NCATS), 2008).
Among all 210,000 compounds or so, about 5,900 (2.8%) were called active. This list was built around the results that the source calls inconclusive (neither active nor inactive); the mix of calls is not that of the screen. Calls follow the shape of the dose curve; as a rule, active = well fitted activation curve with a large enough effect; inconclusive = small, poorly fitted or top-dose-only effect; inactive = no such curve, though single readings can be large or run the other way. A potency beside an inconclusive call is a rough fit, not a confirmed value.

Assay: qHTS Assay for Enhancers of SMN2 Splice Variant Expression; also: nearly all actives have a fitted effect of over 55% in size; as to activity change, positive = activation: % of control where 0% means no effect
Conditions: HEK293 SMN2-luciferase splicing reporter, luminescence, 30-36 h; activity change, positive = activation: at 46.1 µM (top of the series)
How it was run: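 HEK293 cells carry an SMN2 […]–luciferase reporter in which exon 7 inclusion puts luciferase in frame. Cells were plated 10-12 h before compound addition, then incubated 30-36 h at 37C. ONE-Glo luminescence was read; sodium butyrate at 4.5 mM final served as control.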
Potency is read from the fitted curve at half-maximal effect; tags tell the direction and shape of the fitted curve.

Row | SMILES | Potency | activity change, positive = activation
1 | C=CCN1C(=O)/C(=C/c2ccc(N(C)C)cc2)S/C1=N\c1nnc(CC)s1 | inconclusive: 1 µM [activator, partial curve, poor fit] | 
2 | CCOC(=O)c1c(-c2ccccc2)oc2ccc(NS(=O)(=O)c3ccc(C)cc3C)cc12 | inactive | 
3 | C=CCn1c(SCC(=O)c2cccs2)nc2sc(C)c(C)c2c1=O | inconclusive: 15.8 µM [activator, single point] | 
4 | Cc1ccc(-c2nc3ccc(Cl)cc3n2OC(C)C(=O)O)cc1 (centres undefined) | inconclusive: 5.62 µM [activator, single point] | 
5 | O=c1[nH]c2ccc(F)cc2[nH]c1=O | inactive | 
6 | COC(=O)CSc1nnc(C)c(=O)[nH]1 | inconclusive: 7.94 µM [activator, partial curve, poor fit] | 
7 | c1ccc(CCN2CN=C(Nc3nc4ccccc4o3)NC2)cc1 | inconclusive: 17.8 µM [activator, single point] | 
8 | CCOC(=O)c1ccc(NC(=O)NC2CC3CCC(C2)N3C(=S)NC)cc1 (centres undefined) | inactive | 
9 | COc1ccccc1Nc1nnc(SCC2CCCCO2)s1 (centres undefined) | inconclusive: 0.891 µM [activator, full curve, poor fit] | 
10 | CC1=CN2C(=N)/C(=C/c3ccc(Sc4ccc(Cl)cc4)o3)C(=O)N=C2S1 | inactive | 
11 | Cc1ccc(OCC(=O)N2CCN(C3=NS(=O)(=O)c4ccccc43)CC2)cc1 | inconclusive: 0.0562 µM [activator, full curve, poor fit] | 
12 | CCOc1ncccc1C(=O)Oc1ccc2c(c1)OCO2 | inconclusive: 14.1 µM [activator, partial curve, poor fit] | 
13 | CCOc1ccc2[nH]c(=O)c(CN(CCO)Cc3nnnn3CCc3ccccc3)cc2c1 | inconclusive: 5.62 µM [activator, single point] | 
14 | CS(=O)(=O)N1CCN(C(=O)c2cc(-c3cccnc3)nc3ccc(Br)cc23)CC1 | inactive | 
15 | Cc1nc2nc(-c3ccco3)[nH]n2c(=O)c1C | inactive | 
16 | CCn1cc(Br)c(C(=O)Nc2ccc(Cl)cc2Cl)n1 | inactive | 
17 | CCOC(=O)c1sc2nc(CSc3ccccc3)nc(N3CCC(C(N)=O)CC3)c2c1C | inactive | 
18 | Fc1ccccc1N=C1NN=C(c2ccccc2)CS1 | active: 12.6 µM | 
19 | O=C(COc1ccc2oc3c(c2c1)CCCC3)Nc1ccc(Br)cc1 | inactive | 
20 | CCCC(=O)Nc1nc(C)c(-c2csc(Nc3ccccc3C)n2)s1 | inactive | 
21 | CCn1cc(C(=O)Nc2cccc(C(=O)OC)c2)c(=O)c2ccc(C)nc21 | inactive | 
22 | Cc1cc(N(CC(=O)NC(C)C)S(C)(=O)=O)ccc1Br | inactive | 
23 | COc1ccc(-c2c3c(=O)n(C)c(=O)n(C)c3cn2-c2cccc(OC)c2)cc1 | inconclusive: 5.62 µM [activator, full curve, poor fit] | 
24 | CCOc1ccc(CCNC(=O)c2nnc(Cc3cc(OC)c(OC)c(OC)c3)o2)cc1OCC | inactive | 
25 | CCOc1ccc(C2CC(c3cccc(OC)c3OC)n3nnnc3N2)cc1Cl (centres undefined) | inconclusive: 10 µM [activator, partial curve, poor fit] | 

Row | SMILES | Potency | activity change, positive = activation
26 | O=C(c1csnn1)N1CCC2(CCCN(c3cccc(-c4ccccc4)c3)C2)CC1 | inactive | 
27 | CCOC(=O)c1c(-c2ccc(F)cc2)csc1NC(=O)c1c(-c2ccccc2)noc1C | inconclusive: 0.178 µM [activator, full curve, poor fit] | 
28 | CN(C)c1ccc(C(=O)/C=C/c2ccccc2)cc1 | active: 22.4 µM | 
29 | CCOC(=O)C1CCCN(C(=O)c2ccc([N+](=O)[O-])cc2)C1 (centres undefined) | inconclusive: 5.01 µM [activator, single point] | 
30 | Cc1ccc(NC(=O)C2C(=O)N(CCO)C3(C)CC2c2ccccc2O3)cc1 (centres undefined) | inconclusive: 11.2 µM [activator, partial curve, poor fit] | 
31 | Cc1ccc(C2=N/C(=C\N3CCCCC3)C(=O)O2)cc1 | inconclusive: 15.8 µM [activator, single point] | 
32 | CCCOc1cccc(C(=O)Nc2cccc(NC(=O)c3ccc(C(C)(C)C)cc3)c2)c1 | inconclusive: 8.91 µM [activator, partial curve] | 
33 | CC1(C(=O)NCCN2CCOCC2)C=CCN1C(=O)c1ccccc1 (centres undefined) | inconclusive: 22.4 µM [activator, single point] | 
34 | COc1cccc2cc(-c3ccnc(=S)[nH]3)oc12 | active: 11.2 µM | 
35 | O=C(Nc1nc2ccc([N+](=O)[O-])cc2s1)C1CCCO1 (centres undefined) | inconclusive: 14.1 µM [activator, partial curve] | 
36 | Cc1ccc(OCC(=O)N/N=C\c2ccc(O)c([N+](=O)[O-])c2)c([N+](=O)[O-])c1 | inactive | 
37 | CCC(CO)Nc1ncnc2c1cnn2-c1ccc(Cl)cc1 (centres undefined) | inconclusive: 20 µM [activator, single point] | 
38 | CCN(CC)C(=O)CSc1nnc(-c2ccco2)o1 | inconclusive: 25.1 µM [activator, single point] | 
39 | Cn1ncc2c(Cl)ncnc21 |  | inactive: -16.8% [at 9.22 µM]
40 | Cc1ccccc1-c1nsc(SCC(=O)Nc2ccc3c(c2)OCO3)n1 | inconclusive: 11.2 µM [activator, partial curve, poor fit] | 
41 | COc1ccc(C(=O)N2CCN(Cc3ccccc3C)CC2)cc1OC | inconclusive: 0.0126 µM [activator, full curve] | 
42 | S=C(NCCc1ccccc1)Nc1cnc2ccccc2c1 | inconclusive: 22.4 µM [activator, single point] | 
43 | Cc1ccc(SCc2nc3ccccc3[nH]2)cc1 | inconclusive: 0.0708 µM [activator, full curve, poor fit] | 
44 | COc1ccc(-c2cc3nc(C)cc(C)n3n2)cc1 | active: 10 µM | 
45 | CN(N=O)C(=O)N[C@H]1[C@@H](O)[C@H](O)[C@H](CO)O[C@@H]1O | inactive | 
46 | CC(=O)Nc1ccc(OC(=O)c2ccc(Br)c([N+](=O)[O-])c2)cc1 | inactive | 
47 | Cc1nc(=O)c(-c2ccccc2)c(C)n1-c1ccc(O)cc1 | inconclusive: 0.0708 µM [activator, full curve, poor fit] | 
48 | COc1ccc(-c2ccc(-c3noc(-c4ccco4)n3)c(OC)n2)cc1 | inconclusive: 0.141 µM [activator, partial curve] | 
49 | c1ccc2oc(SCc3nc4ccccc4s3)nc2c1 | inconclusive: 22.4 µM [activator, single point] | 
50 | O=C1N=C(N2CCc3ccccc3C2)S/C1=C\c1cccc(O)c1 | inconclusive: 0.0089 µM [activator, full curve] | 

Row | SMILES | Potency | activity change, positive = activation
51 | Cc1nc(NC(=O)c2ccccc2)sc1Cc1ccc2c(c1)OCO2 | inconclusive: 17.8 µM [activator, partial curve] | 
52 | O=C(c1cnn2ccccc12)N1CCc2ccccc21 | active: 11.2 µM | 
53 | CCCCN(C)c1nc2c(S(=O)(=O)c3ccc(CC)cc3)nnn2c2ccc(Cl)cc12 | inconclusive: 3.55 µM [activator, single point] | 
54 | CCC(=O)Oc1ccc(/C=C(\C#N)c2nc3ccccc3[nH]2)cc1OC | inconclusive: 17.8 µM [activator, single point] | 
55 | COCCN(C(C)=O)c1nnc(-c2ccccn2)s1 | inconclusive: 14.1 µM [activator, partial curve, poor fit] | 
56 | COCCNC(=O)c1ccc(-c2csc(C)n2)cc1 | inconclusive: 10 µM [activator, partial curve] | 
57 | COc1ccc(-c2csc(N3CCN(C(=O)c4ccccc4)CC3)n2)cc1 | inactive | 
58 | CCOc1ccc(-c2cn3ccccc3n2)cc1 | active: 0.891 µM | 
59 | COc1ccc(Nc2cccc(Cl)c2)c(C(=O)O)c1 | inconclusive: 0.0032 µM [activator, full curve, poor fit] | 
60 | Cc1nc(SCc2ccccc2C)n[nH]1 | inconclusive: 8.91 µM [activator, partial curve] | 
61 | CC(NC(=O)c1cccnc1)C(=O)O (centres undefined) | inconclusive: 7.94 µM [activator, partial curve] | 
62 | CCN1CCN(CCCNC(=O)Cn2nc(C)n3c(cc4cc(C)ccc43)c2=O)CC1 | inactive | 
63 | N#Cc1c2c(c(NCc3cccnc3)n3c1nc1ccccc13)CCC2 | inconclusive: 0.0794 µM [activator, full curve] | 
64 | O=C(NCCc1ccccc1)/C(=N\O)c1ccccc1 | inconclusive: 15.8 µM [activator, single point] | 
65 | CC(C)CC(=O)Nc1ccc(-c2cn3ccsc3n2)cc1 | active: 10 µM | 
66 | Cc1ccc2nc(-c3ccc(NC(=O)c4ccco4)cc3)[nH]c2c1 | active: 7.94 µM | 
67 | Cc1cc(C)cc(OCc2nnc(SCC(=O)OC(C)C)o2)c1 | inconclusive: 0.112 µM [activator, full curve, poor fit] | 
68 | C/C(N)=C(/C#N)C(=O)CSc1ccccc1F | inconclusive: 14.1 µM [activator, single point] | 
69 | CCc1ccc(-c2cc3c(N4CCN(c5ccccc5)CC4)nccn3n2)cc1 | active: 14.1 µM | 
70 | Cc1cc(NC(=O)COC(=O)CSCc2ccc(Cl)c(Cl)c2)no1 | inconclusive: 0.891 µM [activator, full curve, poor fit] | 
71 | COC(=O)c1ccccc1NC(=O)Nc1nnc(N2CCCCC2C)s1 (centres undefined) | inactive | 
72 | COc1ccc(S(=O)(=O)NC(CC(=O)NCc2ccco2)c2ccco2)cc1 (centres undefined) | inconclusive: 0.158 µM [activator, full curve, poor fit] | 
73 | CC(C)c1cc(C(=O)Nc2cc(Br)ccc2O)no1 | inconclusive: 12.6 µM [activator, single point] | 
74 | Cc1csc(-c2coc3cc(O)cc(C)c3c2=O)n1 | inconclusive: 12.6 µM [activator, single point] | 
